The data set has as its system CC(=O)N[C@@H](CSSc1ccc2cc(O)ccc2c1)C(=O)NC1[C@@H](OC2[C@H](O)[C@H](O)C(O)[C@@H](O)[C@H]2O)O[C@H](CO)[C@@H](O)[C@@H]1O. The data set is described as follows: Activity at Mycobacterium tuberculosis Mtr by spectrophotometry.

For the substance “Mycothione reductase (Mycobacterium tuberculosis) (sequence not shown)”, the Km was found to be 23 µM.

Broadly, the Km is the substrate concentration at which the rate is half of its maximum.
